Results on 83 variants are retold here after the RNAGym collection of RNA variant scans (doi:10.1093/nar/gkz1192).

B1: CPEB3 Ribozyme (parent)
chain: UAACAGGGGGCCACAGCAGAAGCGUUCACGUCGCAGCCCCUGUCAGAUUCUGGUGAAUCUGCGAAUUCUGCUGUAUAUCUC

Read counts are not given, so values of variants with three or more changes are uncertain.

In the data set the parent is B1. Description: self-cleavage, relative activity (ratio to wild type); higher = more cleavage; in vitro, sequencing. An outline of the steps: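 Relative activity was defined as the cleaved/total read fraction for a variant divided by the same fraction for the unmutated ribozyme. CPEB3 self-cleaving ribozyme libraries were made by rounds of error-prone PCR, barcoded, and transcribed in vitro with T7 RNA polymerase for 5 hours at 37°C, and cleavage ran through transcription plus a 15 min DNase I step before EDTA. Illumina sequencing of template-switched reverse transcripts gave the reads, and DNA sequencing mapped the barcodes. Averages come from three batches, using variants with at least 5 reads.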
For the variant A3U A21U U26C G36C C68A G70C A77G, the self-cleavage worked out at 0.03.

Take A3G U60G U76A: the self-cleavage is 0.61.

As for A3U A13C A64G U69C, the self-cleavage worked out at 0.4.

A3U G36U A56G A64G: the self-cleavage was determined as 0.1.

Regarding A3U C11U U51G A64G, the self-cleavage turned out to be 0.58.

Consider A3U A13G A45G U58C A77U, for which the self-cleavage is 0.11.

As to A3U A18G U43A, the self-cleavage worked out at 0.54.

On to A3U C14U G30A G46C A56U, for which the self-cleavage was 0.19.

A3G U26C U66C U74C: the self-cleavage was 0.19.

Regarding A3G U51G U58C G70C U76A, the self-cleavage amounted to 0.19.

A3U A5G C23A G33A U41C A45G: the self-cleavage was 0.2.

As to A3G U60C A64U C71U U78C, the self-cleavage was 0.44.

Take A3U G7A A45G A57G U58C: the self-cleavage was 0.23.

For the variant A3G U41A U67A U80A, the self-cleavage was found to be 0.3.

As for A3U U26A U43C G55A U66C, the self-cleavage amounted to 0.1.

For A3U A5C A20U G73A C81U, the self-cleavage turned out to be 0.31.

Consider A3U A18G U31A U67A U80C, for which the self-cleavage was 0.17.

For the variant A3U A20G U31A A45U U58C, the self-cleavage was 0.43.

For A3U U25C U72C, the self-cleavage is 0.28.

Consider A3U A13U A15G, for which the self-cleavage stood at 0.69.

For A3U U25C U26C U66A U78A, the self-cleavage worked out at 0.08.

For A3G U58C G63A U72C, the self-cleavage is 0.49.

Turning to A3U A20G G22C U26A U72C, the self-cleavage came out at 0.06.

Regarding A3U A5C C12U C34U A75U, the self-cleavage stood at 0.14.

Regarding A3U A5U A13U U51C U66C, the self-cleavage is 0.76.

A3G U31C A47G G70A: the self-cleavage was 0.24.

Take A3U C12G U69A: the self-cleavage worked out at 0.19.

Regarding A3U C12G U49C U66C, the self-cleavage came to 0.1.

As for A3U A5C G6A A35G U48C, the self-cleavage amounted to 0.06.

Consider A3U A20G U26C U58C U80C, for which the self-cleavage came to 0.11.

Consider A3U A13G U49C U78A, for which the self-cleavage turned out to be 0.46.

For the variant A3U A21G C37U U76C U80C, the self-cleavage came to 0.54.

Regarding A3U A28G C50U A64G U67A C71G, the self-cleavage was 0.19.

Take A3G U41C A56U U69A U72A: the self-cleavage amounted to 0.23.

With A3G U60A U66A, the self-cleavage is 0.26.

On to A3U A18G C32U A64U, for which the self-cleavage is 0.06.

Consider A3G U48C A75G, for which the self-cleavage came out at 0.39.

Take A3U A15U U41A U60C A65U: the self-cleavage came out at 0.2.

For the variant A3U A18G A28G U48C, the self-cleavage is 0.11.

In the case of A3G U43C A56G A65G U80C, the self-cleavage was 0.25.

With A3G U69C U76C, the self-cleavage came out at 0.37.

Turning to A3U A45U U72G, the self-cleavage was 0.42.

For the variant A3G U41C C59A, the self-cleavage is 0.19.

For the variant A3G U51C U54C U76A U80C, the self-cleavage came to 1.25.

As to A3U A5U U25C U41C, the self-cleavage amounted to 0.12.

For A3G U41A C44A A56G U58C U72A U80A, the self-cleavage was found to be 0.04.

For the variant A3U U25C U26C U78C, the self-cleavage amounted to 0.11.

Turning to A3U A56C U67C U69A U80A, the self-cleavage is 0.21.

In the case of A3G U31G A77G, the self-cleavage was determined as 0.79.

With A3G U41C A47U U51C, the self-cleavage was 0.25.

On to A3U G8C C14U A20G U76C A77G, for which the self-cleavage is 0.6.

Consider A3U C37U A45C, for which the self-cleavage came out at 0.45.

A3U A20G U25C U43C: the self-cleavage turned out to be 0.4.

As to A3G U31G A65G U66A, the self-cleavage was determined as 0.17.

As for A3U A35G U58C, the self-cleavage was determined as 1.14.

Regarding A3U A20U U49C, the self-cleavage stood at 0.35.

For the variant A3U G8A A18G G19U U25C U31C U74C, the self-cleavage stood at 0.06.

On to A3U A5G G24A U26C G61A, for which the self-cleavage was determined as 0.6.

In the case of A3U C11U U41G U43C U60A, the self-cleavage was 0.2.

In the case of A3U C11G A47G A75U, the self-cleavage came out at 0.78.

Turning to A3G U41C U60A, the self-cleavage was 0.41.

As for A3U A28C A75G, the self-cleavage is 0.3.

Take A3G U51A U67A U72C: the self-cleavage was 0.61.

With A3U C12U U51A U69A, the self-cleavage turned out to be 1.01.

Turning to A3U G7A A15G, the self-cleavage worked out at 0.09.

Turning to A3U U25C U66C U78C, the self-cleavage turned out to be 0.09.

Turning to A3U U25C U54C U60C U66A U69A, the self-cleavage worked out at 0.4.

Consider A3G U41C A65G U66A, for which the self-cleavage was 0.34.

For the variant A3U C12U A15U U43C U54C U69C U78C, the self-cleavage came out at 0.1.

With A3G U69A C71U, the self-cleavage came to 0.38.

Turning to A3U A5G U60C A65G U80C, the self-cleavage is 0.11.

Take A3G U49A U60C U69C: the self-cleavage came out at 0.14.

Consider A3U G9U C44U A77G, for which the self-cleavage is 0.28.

As for A3U C40U U72C, the self-cleavage worked out at 0.87.

Consider A3U C11G A18G A47U A57U, for which the self-cleavage was found to be 0.28.

With A3G U43G U48C G53A U69A U74G A75U, the self-cleavage stood at 0.03.

In the case of A3U A45U A56G A64G U74C, the self-cleavage amounted to 0.24.

Consider A3U A5U C40U U60A U69A, for which the self-cleavage was determined as 0.17.

Consider A3G U41C A57G U60C A75G, for which the self-cleavage came to 0.76.

A3U G8A G10A U25C U58C U60A U67A: the self-cleavage stood at 0.08.

Turning to A3G U41C U54C A64U U69G, the self-cleavage was 0.17.

With A3U C11G A20G A21G U69C, the self-cleavage amounted to 0.21.

In the case of A3U A5U U48C U58A U69G U74C, the self-cleavage is 0.37.
